Measured values as given in PubChem BioAssay AID488969 (Vanderbilt High Throughput Screening Facility, 2010).
In all, about 110,000 compounds were measured (“z-score”: median about -0.1, highest 2% from about 2 on). Some of the results follow. Calls of active or inactive are those of the source.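 How the source made its calls: active means z-score in the third read window above 3 or below -3; inactive means the rest.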

The compounds below were run against Metabotropic glutamate receptor 8 (Rattus norvegicus) (UniProt P70579) (assay: rat mGluR8 modulators via GIRK flux, primary screen, cell-based, thallium flux, HTS (AID 488969)). Settings: HEK293 rat mGluR8, GIRK (G protein-gated inwardly rectifying potassium channel) thallium flux, FluoZin2; at 10 µM; stronger effect = higher value; submaximal glutamate (EC20) added with thallium.
Sequence of UniProt P70579 (P70579 whole entry, looked up): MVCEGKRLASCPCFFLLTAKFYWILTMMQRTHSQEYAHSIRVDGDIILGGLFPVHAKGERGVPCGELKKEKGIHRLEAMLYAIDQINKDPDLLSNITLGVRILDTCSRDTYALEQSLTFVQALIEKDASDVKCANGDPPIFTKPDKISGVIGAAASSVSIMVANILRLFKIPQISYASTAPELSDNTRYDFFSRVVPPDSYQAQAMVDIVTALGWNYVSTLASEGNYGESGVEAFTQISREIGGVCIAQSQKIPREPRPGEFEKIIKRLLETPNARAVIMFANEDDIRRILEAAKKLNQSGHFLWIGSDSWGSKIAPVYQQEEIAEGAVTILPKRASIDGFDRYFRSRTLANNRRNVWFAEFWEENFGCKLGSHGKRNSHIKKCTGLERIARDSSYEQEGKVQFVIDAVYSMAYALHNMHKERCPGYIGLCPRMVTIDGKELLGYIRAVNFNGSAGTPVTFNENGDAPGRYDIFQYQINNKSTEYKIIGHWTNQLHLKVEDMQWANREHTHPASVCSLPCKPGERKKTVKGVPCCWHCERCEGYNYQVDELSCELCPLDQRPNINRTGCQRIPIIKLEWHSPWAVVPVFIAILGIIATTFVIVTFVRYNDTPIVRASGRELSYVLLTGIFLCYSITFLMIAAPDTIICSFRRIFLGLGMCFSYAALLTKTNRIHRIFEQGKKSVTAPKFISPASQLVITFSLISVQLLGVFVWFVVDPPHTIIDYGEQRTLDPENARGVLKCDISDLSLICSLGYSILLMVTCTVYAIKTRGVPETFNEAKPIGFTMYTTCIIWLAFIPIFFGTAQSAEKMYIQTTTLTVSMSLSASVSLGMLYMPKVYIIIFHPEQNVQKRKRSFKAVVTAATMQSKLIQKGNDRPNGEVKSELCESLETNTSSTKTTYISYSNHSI
With `Nc1nonc1-c1nc2ccccc2n1Cc1ccccc1` the z-score was 0.128.
For `S=C(NCc1cccs1)Nc1cccc(Cl)c1`, the z-score was active: 4.52.
`Cc1ccc(C(=O)NCC(=O)OCC(=O)Nc2ncc(C(F)(F)F)cc2Cl)cc1` gave a z-score of -0.464.
`C=CCn1c(C)cc(-c2csc(N)n2)c1C` showed a z-score of 0.0849.
Work on `O=C(O)C(=O)/C(=C\c1ccccc1)c1ccc2ccccc2n1` yielded a z-score of 0.0525.
`O=C(c1cc2ccccc2oc1=O)N(Cc1cccs1)Cc1ccccc1Cl` gave a z-score of 0.00762.
`COC(=O)c1onc(-c2c(OC)cc(OC)cc2OC)c1C(=O)OC` gave a z-score of 0.522.
With `Nc1nc(SCc2ccc3c(c2)OCCO3)n[nH]1` the z-score was -0.365.
`Cc1cccc(NC(=S)N2CCN(C(=O)C3CCCO3)CC2)c1` (stereo unspecified) showed a z-score of -0.319.
In the case of `Cn1nc(-c2ccccc2)c(C#N)c1Sc1cccc(Cl)c1`, the z-score is reported as 0.228.
`Cc1ccc(OCCN2CCN(C(=O)CCC(=O)Nc3nnc(C(C)C)s3)CC2)cc1` gave a z-score of 0.375.
Compound `CCc1nc2ccccc2n1CCC(C)C` has a z-score of -0.198.
For `Cc1cc2nc(C3CCCN(C(=O)NCc4ccccc4)C3)[nH]c2cc1C` (stereo unspecified), the z-score was -0.155.
`COc1ccc(S(=O)(=O)NC(C)(C)C)cc1-c1nnc2c3ccccc3c(C)nn12` showed a z-score of -0.649.
Work on `Cc1ccc(C(=O)NN(CCC(=O)NC(C)(C)C)C2=NS(=O)(=O)c3ccccc32)cc1` yielded a z-score of -0.226.
`COc1ccccc1-c1nc(C#N)c(N2CCN(Cc3ccccc3)CC2)o1` was tested, and the z-score was 0.0931.
`CCOc1ccc(OCCOCCOc2ccccc2Cl)cc1` was tested, and the z-score was -0.132.
Compound `CCNC(=S)N(Cc1ccc(OC)cc1)C1CC(=O)N(c2ccc(OCC)cc2)C1=O` (stereo unspecified) has a z-score of -0.0409.
Compound `CCOC(=O)c1ccccc1NC1c2ccccc2C(=O)N1C1CCN(C(=O)OCC)CC1` (stereo unspecified) has a z-score of -0.69.
Compound `Cn1c(NC(=O)CCC2CCCCC2)cc(=O)n(C)c1=O` has a z-score of -0.0709.
For `Cc1ccc(OC(C)C(=O)O)cc1C` (stereo unspecified), the z-score was 0.126.
`COc1ccc(OC)c(C(=O)COC(=O)CNC(=O)C2CCCCC2)c1` gave a z-score of 0.127.
For `Cc1ccccc1Nc1nnc(C)c(=O)[nH]1`, the z-score was 0.0115.
In the case of `Brc1ccc2ncnc(Nc3ccc(N4CCOCC4)cc3)c2c1`, the z-score is reported as -0.207.
Work on `COc1ccc(-n2c(CNc3ccc(C)cc3)nnc2SCC(=O)Nc2nc(-c3ccccc3)cs2)cc1` yielded a z-score of 0.133.
In the case of `COc1ccc(C(CC(=O)c2ccc(O)cc2)S(=O)(=O)c2ccc(C)cc2)cc1` (stereo unspecified), the z-score is reported as -0.254.
`CC12CC(NC(=O)N1c1cccc(C(=O)N3CCN(c4ccccc4)CC3)c1)c1ccccc1O2` (stereo unspecified) gave a z-score of -0.354.
Compound `Cc1cc(NC(=O)c2noc3c2CCCCC3)no1` has a z-score of 0.114.
`CCN1C(=O)/C(=C\N2CCCc3ccccc32)SC1=S` showed a z-score of -0.289.
For `Cc1cc(NC(=O)Cc2ccccc2)nc2c1c(=O)oc1ccccc12`, the z-score was -0.184.
`O=[N+]([O-])c1cccnc1N1CCOCC1` showed a z-score of 0.0447.
